Data on 34 variants can be found in the RNAGym collection of RNA variant scans (doi:10.1093/nar/gkz1192).

B1: CPEB3 Ribozyme (parent)
chain: UAACAGGGGGCCACAGCAGAAGCGUUCACGUCGCAGCCCCUGUCAGAUUCUGGUGAAUCUGCGAAUUCUGCUGUAUAUCUC

Read counts are not given, so values of variants with three or more changes are uncertain.

The variants in the data set derive from B1. Kind of data set: self-cleavage, relative activity (ratio to wild type); higher = more cleavage; in vitro, sequencing. The method in brief:
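Relative activity compares each variant's cleaved/total read fraction with that of the unmutated ribozyme. To get these fractions, barcoded CPEB3 ribozyme libraries from rounds of error-prone PCR were transcribed with T7 RNA polymerase for 5 hours at 37°C and then given 15 min of DNase I treatment before EDTA was added. The RNAs were reverse transcribed with template switching and sequenced on Illumina, and DNA sequencing linked barcodes to variants. A minimum of 5 reads applied, and three batches were averaged.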
As for UAACAGGGGGCCGCAGCGGAAGCGUUCACGUCGCAGCCCCUGUCAGAUUCUGGUGAACCUGCGAAUUCUGCUGUAUAUCUC, the self-cleavage was found to be 0.26.

With UAACAGGGGGCCGCGGCAGAAGCGUUCACGUCGCAGCCCCCGUCAGAUUCUGGUGAAUCUGCGAAUUCUGUUGUAUAACUC, the self-cleavage turned out to be 0.14.

With UAACAGGGGGCCGCUGCAGAAGCGUUCACGUCGCAGCCCCAGUCAGAUUCUGGUGAAUCUGCGAAUUCCGCUGUAUAUCUC, the self-cleavage amounted to 0.28.

On to UAACAGGGGGCCCCAGCAGAAGCGUUCACGUCGCAGCCCCUGUCAGAUUCAGGUGAAUCUGCGGAUUCUGCUGUUUAUCUC, for which the self-cleavage was 0.79.

With UAACAGGGGGCCGCAGCGGAAGCGUUCACGUCGCAGCCCCUGUCAGAUUGUGGUGAAUCUGCGAAUUCUGCUGUAUAUCUC, the self-cleavage turned out to be 0.08.

Turning to UAACAGGGGGCCGCGGCAGGAGCGUUCACGUCGCAGCCCCAGUCAGAUUCUGGUGAAUCUGCGAAUUCUGCUGUAUAUCUC, the self-cleavage was determined as 0.41.

Consider UAACAGGGGGCCGCUGCAGAAGCGUCCACGUCGCAGCCCCUGUCAGAUUCUGGUGAAUCCGCGGAUUCUGCCGUAUAUCUC, for which the self-cleavage was 0.12.

With UAACAGGGGGCCGCUGCAGAAGCGUUCACGUCGCAGCCCCUGUCAGAUUCUGGUGAAUCUGCGAACUCUGCUGUAUAUCUC, the self-cleavage stood at 0.26.

Take UAACAGGGGGCCGCAGCGGAAGCGUUCACGUCGCAGCCCCUGUCUGAUUCUGGUGAACCUGCGAAUUCUGCUGUAUAUCUC: the self-cleavage came out at 0.11.

As for UAACAGGGGGCCGCAGCGGAAGCGGCCACGUCGCAGCCCCUGUCAGAUUCUGGUGAAUCUGCGAAUUCUGCUGUAUAUCUC, the self-cleavage is 0.4.

On to UAACAGGGGGCCGCAGCGGAAGCGUUCACGUCGCAGCCCCUGUCAGAUUCUGGUGAAUCUGCGAACUCUGCUGUAUAUCUC, for which the self-cleavage was 0.33.

UAACAGGGGGCCGCUGCAGAAGCGUCCACGUCGCAGCCCCUGUCAGAUUCUAGUGAAUCCGCGAAUUCUGCUGUAUAUCUC: the self-cleavage was 0.07.

Take UAACAGGGGGCCGCUGCAGAAGCGUUCACGCCGCAGCCCCUGUCAGAUUCUGGUGCAUCCGCGAAUUCUGCUGUAUAUCUC: the self-cleavage is 0.14.

Take UAACAGGGGGCCGCGGCAGCAGCGUUCACGUCGCAGCCCCUGUCAGAUUCUGGAGAAUCUGCGAAUUCUGCUGUAUAUCUC: the self-cleavage was found to be 0.49.

In the case of UAACAGGGGGCCGCUGCAGAAGCGUUCACGUCGCUGCCCCUGUAAGAUUCUGGUGAAUCUGCGAAUUCUGCUGUUUAUCUC, the self-cleavage is 0.21.

With UAACAGGGGGCCGCGGCAGAAGCGUUCACGUCGCAGCCCCUGUCAGAUUCUGGUGAAUCUGCGAAUUCCGCCGUAUAUCUC, the self-cleavage was determined as 0.29.

As for UAACAGGGGGCCGCGGCCGAAGCGUUCACGUCGCAGCCCCUGUUAGAUUCCGGUGAAUCUGCGAAUCCUGCUGUAUAUCUC, the self-cleavage turned out to be 0.26.

Consider UAACAGGGGGCCGCAGCGGAAGCGUUCUCGUCGCAGCCCCUGACAGAUUCUGGUGAAUCUGCGAAUUCUGCUGUAUAUCUC, for which the self-cleavage was determined as 0.19.

Turning to UAACAGGGGGCCGCAGCCGAAGCGUUCACGUCGCAGCCCCUGUCAGAUUCUGGUGAAUCUGCGAAUUCUGCUGCAGAUCUC, the self-cleavage worked out at 0.14.

For UAACAGGGGGCCGCAGCGGAAGCGUUCACGUCGCAGCCCCUGUCUGAUUCUGGUGAGUCCGCGAAUUCUGCUGUAUAUCCC, the self-cleavage was determined as 0.03.

On to UAACAGGGGGCCGCAGCGGAAGCGUCCACGUCGCAGCCCCAGUCAGAUUCCGGUGAAUCUGCGAAUUCUGCUGCAUAACUC, for which the self-cleavage amounted to 0.

Regarding UAACAGGGGGCCGCGGCAGAAGCGUUCACGUCGCUGCCCCCGUCAGGUUCUGGUGAAUCUGCGAAUUCUGCAGUAUAUCUC, the self-cleavage turned out to be 0.33.

As to UAACAGGGGGCCGCAGCGGAAGCGUUCACGUCGCAGCCCCCGUCAGAUUCCGGUGAAUCUGCGAAUUCUGCUGUAUAUCUC, the self-cleavage amounted to 0.43.

In the case of UAACAGGGGGCCGCAGCGGAAGCGUUCACGUCGCAGCCCCUGUCAGAUUCUGGCGAAUCUGCGAGUUCAGCUGUAUAUCUC, the self-cleavage was 0.11.

Consider UAACAGGGGGCCGCAGCGGAAGCGCUCACGUCGCAGCCCCUGUCAGAUUCUGGUGAAUCUGCGAAUUCUGCUGUAUAUCUC, for which the self-cleavage was 0.19.

In the case of UAACAGGGGGCCGCUGCAGAGACGUUCACGUCGCAGCCCCUGUCAGAUUCUGGUGAGUCUGCGAAUUCUGCGGUAUAUCUC, the self-cleavage turned out to be 0.14.

Consider UAACAGGGGGCCGCGGCAGAAGCGUUCACGUCGCAGCCCCUGUCGGAUCCUGGUGAAUCUGCGAAUUCUGCUGUAUAUCUC, for which the self-cleavage is 0.43.

For the variant UAACAGGGGGCCGCGGCAGAAGCGUUCACGUCGCAGCCCCAGUCAGUUUCUGGUGAAUCUGCGUAUUCUGCUGUAUAUCUC, the self-cleavage amounted to 0.1.

In the case of UAACAGGGGGCCGCGGCAGAAGCGUUCACGUCGCAGCCCCUGUCAGAUUCUGGUGGAUCUGCGAAUUCUGCUGUAAAUCCC, the self-cleavage came out at 0.37.

For the variant UAACAGGGGGCCGCGGCAGAGGCGUUCACGUCGCUGCCCCUGUCAGAUUCUGGUGAAUCUGCGAAUCCUGCUGUAUGUCUC, the self-cleavage stood at 0.18.

With UAACAGGGGGCCGCAGCGGAAGCGUUCACGUCGCAGCCCCUGUCUGAUUCUGGUGAAUCCGCGAAUUCUGCUGUAUAUCCC, the self-cleavage amounted to 0.3.

UAACAGGGGGCCCCAGCAGAAGCGUUCACGUCGCAGCCCCUGUCAGAUUCCGGCGAAUCUGCGAAUUCUGCUGUAUAUCUC: the self-cleavage stood at 1.07.

UAACAGGGGGCCGCAGCCGAAGCGUUCAUGUCGCAGCCCCUGUCAGAUUCUUGUGAAUCUGCGAAUUCUGCUGUAUAUCUC: the self-cleavage was determined as 0.14.

UAACAGGGGGCCGCGGCAGAAGCGUUCGCGUCGCAGCCCCUGUCGGAUUCUGGUGAAUCUGCGAAUUCUGCUGUAUAUCUC: the self-cleavage was found to be 0.51.
